# Over roughly 18,000 sequences, “TetR repression strength (sort-seq, GFP reporter)” has its median near 0.23; the highest 2% begin near 0.68. The list shows a part of the results.
# Target: TetR (class B, Tn10) (UniProt P04483)
# Assay: TetR repression strength (sort-seq, GFP reporter) (relative to tetO2 = 1); higher = stronger repression
# Settings: E. coli
# Method in brief: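 In LB with 50 µg/mL chloramphenicol, E. coli SIG10-MAX holding a low-copy library with eight randomized operator positions between a constitutive promoter and sfGFP, plus constitutive TetR, grew for 5 h at 37 °C. FACS then sorted 10^6 cells into 13 fluorescence bins for Illumina sequencing of each bin. Repression strength equals the top bin index plus one less the read-weighted mean bin, normalized to the unaltered operator. Values from three independent transformations were averaged when reads were ≥30 in every replicate and the CV was ≤0.5.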
# Chain of UniProt P04483 (P04483 whole entry): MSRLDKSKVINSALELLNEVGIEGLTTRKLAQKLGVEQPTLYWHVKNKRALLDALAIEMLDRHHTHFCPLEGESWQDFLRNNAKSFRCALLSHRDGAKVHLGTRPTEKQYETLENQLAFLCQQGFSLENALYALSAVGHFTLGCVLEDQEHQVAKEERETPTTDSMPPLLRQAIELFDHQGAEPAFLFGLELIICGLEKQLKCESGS
row,Sequence,TetR repression strength
1,TCCCAGTTAGTCTAAGAGA,0.174
2,TCCCTAGGAGTATGCGAGA,0.202
3,TCCCCGAGAGTGCGAGAGA,0.162
4,TCCCGGGGAGTGGGAGAGA,0.192
5,TCCCTTCTAGTTGGTGAGA,0.346
6,TCCCTGTTAGTGCCGGAGA,0.127
7,TCCCAATCAGTAATAGAGA,0.529
8,TCCCGGAAAGTGCTGGAGA,0.231
9,TCCCCGGCAGTTCTGGAGA,0.276
10,TCCCGGCGAGTATTAGAGA,0.31
11,TCCCAGTTAGTTGCCGAGA,0.0275
12,TCCCCTTAAGTTGTCGAGA,0.517
13,TCCCTTTAAGTGCAAGAGA,0.325
14,TCCCGCTGAGTGCGTGAGA,0.372
15,TCCCCTTTAGTAGTGGAGA,0.282
16,TCCCCACCAGTTACGGAGA,0.0904
17,TCCCTGGGAGTACCAGAGA,0.524
18,TCCCGCTGAGTCGGGGAGA,0.364
19,TCCCATTGAGTGGAAGAGA,0.184
20,TCCCTTACAGTAGGAGAGA,0.274
21,TCCCGCAGAGTCGGGGAGA,0.2
22,TCCCGGAAAGTAGACGAGA,0.0346
23,TCCCCCGCAGTGGTAGAGA,0.267
24,TCCCTGGGAGTACGGGAGA,0.255
25,TCCCCGATAGTGTTAGAGA,0.244
26,TCCCTATTAGTTGGAGAGA,0.218

row,Sequence,TetR repression strength
1,TCCCGGATAGTCTTGGAGA,0.191
2,TCCCTCTGAGTCCGTGAGA,0.316
3,TCCCGCGGAGTGCCGGAGA,0.254
4,TCCCTCCGAGTTCACGAGA,0.396
5,TCCCTGCAAGTGTCAGAGA,0.218
6,TCCCAATCAGTTGAAGAGA,0.279
7,TCCCTGAGAGTTGTGGAGA,0.18
8,TCCCCGGCAGTCCGTGAGA,0.0993
9,TCCCTAACAGTAGTCGAGA,0.492
10,TCCCGTTTAGTGTAAGAGA,0.191
11,TCCCGTGCAGTGCAAGAGA,0.472
12,TCCCGACGAGTGTTGGAGA,0.453
13,TCCCGGCAAGTGGCGGAGA,0.207
14,TCCCTTGAAGTTCACGAGA,0.246
15,TCCCACAGAGTGGGAGAGA,0.133
16,TCCCGGAAAGTTTAGGAGA,0.211
17,TCCCAAAGAGTGCCGGAGA,0.168
18,TCCCACCCAGTTAAGGAGA,0.329
19,TCCCTAGCAGTCACTGAGA,0
20,TCCCAGAAAGTCGGAGAGA,0.254
21,TCCCGTGGAGTCCAGGAGA,0.259
22,TCCCTAGTAGTGGGTGAGA,0.143
23,TCCCAGCGAGTGGTGGAGA,0.0858
24,TCCCGAGTAGTTGCGGAGA,0.169
25,TCCCTGTGAGTCAAAGAGA,0.154
26,TCCCATGGAGTGATGGAGA,0.222

row,Sequence,TetR repression strength
1,TCCCTGTAAGTCGCGGAGA,0.246
2,TCCCTGGAAGTGCGAGAGA,0.119
3,TCCCAGTGAGTGTGCGAGA,0.247
4,TCCCGGAGAGTTGCTGAGA,0.22
5,TCCCGGGGAGTTTTTGAGA,0.328
6,TCCCTAAAAGTGATCGAGA,0.318
7,TCCCTGGTAGTCAGTGAGA,0.0444
8,TCCCGAACAGTCGGTGAGA,0.354
9,TCCCGTAAAGTGGTGGAGA,0.228
10,TCCCCTGTAGTCGTAGAGA,0.344
11,TCCCGAAAAGTTGACGAGA,0.0056
12,TCCCTGTTAGTCGTTGAGA,0.271
13,TCCCTGTAAGTTGTGGAGA,0.0341
14,TCCCGGCTAGTGAATGAGA,0.357
15,TCCCTTGTAGTGAGGGAGA,0.19
16,TCCCAGAGAGTGAAAGAGA,0.361
17,TCCCGACCAGTGGTGGAGA,0.167
18,TCCCTAAGAGTTCATGAGA,0.203
19,TCCCGGCGAGTGCTGGAGA,0.0482
20,TCCCGCTTAGTCGAAGAGA,0.389
21,TCCCATTGAGTCTATGAGA,0.259
22,TCCCAGCAAGTATTCGAGA,0.322
23,TCCCGTGAAGTCCCAGAGA,0.325
24,TCCCTAAAAGTAAGGGAGA,0.24
25,TCCCCCAGAGTGGAGGAGA,0.179
26,TCCCCCAGAGTTGGGGAGA,0.104

row,Sequence,TetR repression strength
1,TCCCACCAAGTTTGAGAGA,0.283
2,TCCCGTTCAGTGCTTGAGA,0.367
3,TCCCGGGTAGTATTGGAGA,0.223
4,TCCCGGAGAGTGGCGGAGA,0.0439
5,TCCCGAGAAGTTAGCGAGA,0.219
6,TCCCATTTAGTCGAGGAGA,0.136
7,TCCCTGTTAGTGCGGGAGA,0.226
8,TCCCTCGAAGTGGGGGAGA,0.0994
9,TCCCGCATAGTCTGCGAGA,0.187
10,TCCCTCGGAGTACCCGAGA,0.0592
11,TCCCTAATAGTAGGCGAGA,0.509
12,TCCCGCCGAGTGGGGGAGA,0.13
13,TCCCGGCTAGTCGAAGAGA,0.581
14,TCCCGGTTAGTTGCAGAGA,0.131
15,TCCCATCGAGTGCTGGAGA,0.277
16,TCCCTCGAAGTGTTGGAGA,0.154
17,TCCCGTAGAGTCAAAGAGA,0.207
18,TCCCGAATAGTGCTCGAGA,0.0571
19,TCCCTGCTAGTTAGGGAGA,0.181
20,TCCCCCTGAGTAGGCGAGA,0.179
21,TCCCTAGGAGTCCCGGAGA,0.261
22,TCCCACCCAGTATCAGAGA,0.2
23,TCCCATGGAGTAGAGGAGA,0.226
24,TCCCCAGTAGTGTAAGAGA,0.139

# Source: a collection of fitness landscapes (doi:10.1038/s41467-024-54723-y)
